From PubChem BioAssay AID1919004 (Molecular Pharmacology Branch, DTP, NCI, 2023) come the findings set out here.

Some entries of the source have several records that differ or are many. The other results are left out here. An entry can have further records. Results that share an entry are repeats (runs, samples, wells, individuals or studies). Brackets with × count equal records among those shown. Marks such as [2022-09] give the month of the run.

The assay deals with 883617-216-R-J1-PDC complex spheroids, growth, % test/control. Briefly: Anticancer human tumor 883617-216-R-J1-PDC patient-derived bladder carcinoma cell line growth inhibition [AhR]. The note with it: for viability, T/C: stronger effect = lower value; for IC50: compound alone. The source says: Multicellular complex tumor spheroid response to aryl hydrocarbon receptor antagonists in combination with a variety of drugs and investigational agents in selected tumor cell lines
The current study was undertaken to assess response to aryl hydrocarbon receptor antagonists in combination with standard-of-care drugs and investigational agents in solid tumor complex spheroid models. Complex spheroids include a stromal component modeled by human endothelial cells (HUVEC) and fibroblasts modeled by human mesenchymal stem cells (MSCs). The concentration ranges selected for each drug and investigational agent were based upon clinically achievable concentrations if the clinical Cmax of the agent was known.
Compounds. The drugs and investigational agents: BAY 2416964 (NSC825713), GNF351 (NSC835774), CH-223191 (NSC835775), CPI-455 (NSC825282), aza-TdCyd (NSC777586), decitabine (NSC127716), belinostat (NSC758774), entinostat (NSC756642), pevonedistat (NSC761192), tazemetostat (NSC777109), talazoparib (NSC765396), olaparib (NSC753686), selinexor (NSC780203), nedisertib (M3814, NSC802822), bortezomib (NSC756655), venetoclax (NSC766270), doxorubicin (NSC123127), elimusertib (BAY189344, NSC800525), ceralasertib (AZD6738, NSC777638), TAK-243 (NSC785004), alisertib (NSC759677), etoposide (NSC141540), topotecan (NSC609699), eribulin (NSC707389), gemcitabine (NSC613327), carboplatin (NSC241240), cisplatin (NSC119875), and SN-38 (NSC673596) were obtained from the National Cancer Institute (NCI) Developmental Therapeutics Program Chemical Repository (32). The FDA-approved anticancer drug set is available from the Developmental Therapeutics Program at https://dtp.cancer.gov/organization/dscb/obtaining/available plates.htm. […] The stock solutions were prepared in dimethyl sulfoxide (DMSO, Sigma-Aldrich, St. Louis, MO, cat. D2650), except for the platinum compounds which were prepared in saline (Quality Biological, Gaithersburg, MD, cat. 114-055-101), at 800-fold the tested concentration and stored at -70 degrees C prior to their use. All drugs and investigational agents were tested over a range starting from a high concentration at or near the clinical Cmax and decreasing in half-log increments. If the clinical Cmax for an agent had not been determined, the highest concentration tested was 10 microM (Table 1).
Cell Culture. All cells were maintained in an incubator at 37 degrees C and 5% CO2 with 95% humidity. The PDC lines were cultured according to standard operating procedures established by the NCI PDMR (https://pdmr.cancer.gov). Briefly, all PDCs were thawed and cultured in Matrigel-coated flasks prepared with a working solution of 1X Ham's F-12 nutrient mix, without supplementation (Invitrogen, Waltham, MA, cat. 11765054), 100 U/mL penicillin-streptomycin (Invitrogen, cat. 15140122), and 2.5% Matrigel (Corning Inc., Corning, NY, cat. 354248) for the first three passages. All PDCs were cultured in complete DMEM/F-12 media containing advanced DMEM/F-12 (Invitrogen, cat. 12634028), 4.9% defined fetal bovine serum, heat inactivated (HyClone Laboratories Inc., Logan, UT, cat. SH30070.03HI), 389 ng/mL hydrocortisone (Sigma-Aldrich, cat. H4001), 9.7 ng/mL human EGF recombinant protein (Invitrogen, cat. PHG0313), 23.4 microg/mL adenine (Sigma-Aldrich, cat. A2786), 97.3 U/mL penicillin-streptomycin (Invitrogen, cat. 15140122), 1.9 mM L-glutamine (Invitrogen, cat. 25030081), and 9.7 microM Y-27632 dihydrochloride (Tocris Bioscience, Bristol, United Kingdom, cat. 1254). The PDCs were cultured in complete DMEM/F12 media without 10 microM Y-27632 dihydrochloride for at least two passages prior to the screen. The established cell lines NCI-H1341 and […] were cultured in DMEM/F-12, HEPES (Invitrogen, cat. 11330032), 5% defined fetal bovine serum (HyClone Laboratories Inc., cat. SH30070.03), ITS premix universal culture supplement [insulin (5 microg/mL), transferrin (5 microg/mL), and selenious acid (5 ng/mL)] […]
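Further: exposure lasted 7 days after dosing on day 3 of spheroid growth.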

`Cc1cncc(-c2nc(NCCc3c[nH]c4ccccc34)c3ncn(C(C)C)c3n2)c1`: the viability, T/C by setting is: (compound alone 0.316 µM) 89.3, 79.4, 91.6, 78, 82.8, 94, 87.1, 86.4, 91.2, 86.6, 105, 84.1, 78.9, 89.7, 99.7, 96.6, 92.2, 89.6, 96.8%; (compound alone 3.16 µM) 111, 99.2, 97.4, 104, 91.1, 109, 101 (2×), 103 (2×), 89.6, 112, 121, 94.3, 94.1, 98.9, 102, 84.4, 98.2, 100, 126%. The IC50 (run of 06/06/2022) is given as 8.76 µM, 8.42 µM, > 10 µM, 9.36 µM, 8.73 µM, 9.98 µM, 8.62 µM, 9.33 µM, 9.79 µM, 7.7 µM, 8.46 µM, 9.06 µM.

As for `CC(CO)NC(=O)c1cc(-c2ccc(Cl)cc2)nn(-c2cnn(C)c2)c1=O` (stereo not given), the viability, T/C (compound alone 0.1 µM) is 106, 92.2 (2×), 105 (2×), 81.8, 76.9, 53.5, 96.5, 113 (2×), 76.1, 143, 91.6, 71.5, 108, 95.5, 64, 98.5, 77.4%; the viability, T/C (compound alone 0.316 µM) is 117, 106, 127, 99.2, 79.5, 74.1, 120, 90.4, 68.2, 90.8, 85.2 (2×), 100, 89.1, 84.3, 88, 107, 91.8, 113, 94, 115%; the viability, T/C (compound alone 1 µM) is 74.9, 101, 67, 83.7, 67.7, 56.5, 94.6, 72.6, 126, 98.2, 81.6, 96.8, 111, 87.8, 78.9, 68.2, 55.9, 99.2 (2×), 75.2, 102%; the viability, T/C (compound alone 3.16 µM) is 49.3, 78.3, 106 (2×), 74.5, 64.5, 86.6, 78.2, 75.5, 84.7, 72.8, 77.8, 52.1, 70.5, 84.4, 79.6, 77.1, 70.9, 57%; the viability, T/C (compound alone 10 µM) is 89.1, 89.8, 83.9, 68.3, 55.5, 74.7, 105, 98.8, 119, 79.3, 75.7, 85.3, 93.9, 111, 67.7, 60.8, 86.9, 64.8, 82.9%.

`CC(C)CC(NC(=O)C(Cc1ccccc1)NC(=O)c1cnccn1)B(O)O` (stereo not given): the viability, T/C (compound alone 0.00949 µM) is 2.55% [2022-05] and 36.4%, 35.7% [2022-06].

On to `Nc1ccn(C2OC(CO)C(O)C2(F)F)c(=O)n1` (stereo not given), for which the IC50 was > 10 µM [2022-05] and < 31.6 nM (2×) [2022-06].

As a reminder, the viability, T/C is the result in the treated group divided by that in the control group, in per cent. The term IC50 denotes the concentration needed to halve the response being measured.
